In PubChem BioAssay AID493208 (National Center for Advancing Translational Sciences (NCATS), 2011):
The campaign covered roughly 44,000 compounds. About 340 (0.77%) were called active. Another 5% or so got no clear call; they are omitted. Calls follow the shape of the dose curve; as a rule, active = well fitted inhibition curve with a large enough effect; inconclusive = small, poorly fitted or top-dose-only effect; inactive = flat fitted curve, though single readings scatter. The list shows a part of the results.

Experiment: Acumen qHTS Assay for Inhibitors of the mTORC1 Signaling Pathway in MEF (Tsc2-/-, p53-/-) Cells: Sytravon;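 also: plate controls were DMSO for no effect and rapamycin for full effect; nearly all actives have a fitted effect of over 50% in size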
Details: phospho-rpS6 immunofluorescence/PI, 24 h; series mostly up to 38.3 µM; activity change, negative = inhibition: at the top concentration
Procedure, shortened: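 Immunofluorescence of rpS6 phosphorylation in Tsc2-/-, p53-/- MEFs after 24 h compound exposure, normalized to propidium iodide signal. Activity is expressed as % positive cells, thresholded with 7.5 nM rapamycin.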

**Q.** With `CC(=O)Nc1ccc(NC(=O)CCCn2nc(C)c3sc4ccccc4c3c2=O)cc1` as the compound, how does the “activity change, negative = inhibition” value read?
**A.** inactive: 0.769%

**Q.** With `CCOc1ccc(N(C)S(=O)(=O)c2ccc3c(c2)CCCN3C(C)=O)cc1` as the compound, how does the “activity change, negative = inhibition” value read?
**A.** inactive: -7.34%

**Q.** Which “activity change, negative = inhibition” value does the source give for `O=C(CSCn1nnc2c(=O)[nH]c(Cc3ccc(F)cc3)nc21)Nc1cccc(C(F)(F)F)c1` here?
**A.** inactive: -4.76%

**Q.** Which “activity change, negative = inhibition” value does the source give for `COc1cc2c(cc1OC)C(COc1cccc(C(F)(F)F)c1)N(C(=O)c1ccc(S(=O)(=O)N3CCCC3)cc1)CC2` (stereo not drawn) here?
**A.** inactive: 2.35%

**Q.** Which “activity change, negative = inhibition” value does the source give for `CCc1ccccc1NC(=O)C(=O)NCCCN1CCOCC1` here?
**A.** inactive: -3.31%

**Q.** For `CCC(C)NC(=O)C1CCN(S(=O)(=O)c2ccc3c(c2)CCCN3C(C)=O)CC1` (stereo not drawn), which “activity change, negative = inhibition” value is on record?
**A.** inactive: 0.429%

**Q.** Which “activity change, negative = inhibition” value does the source give for `CCn1cc(C(=O)N2CCN(c3ccc(C)cc3)C(C)C2)c(=O)c2cc(S(=O)(=O)N3CCCC3)ccc21` (stereo not drawn) here?
**A.** inactive: 0.236%

**Q.** For `CNC(=O)CCCN1C(=O)c2cccnc2Sc2ccccc21`, which “activity change, negative = inhibition” value is on record?
**A.** inactive: -2.94%

**Q.** For `CCOc1cc(C(=O)NCCc2sc(-c3ccc(F)cc3)nc2C)cc(OCC)c1OCC`, which “activity change, negative = inhibition” value is on record?
**A.** inactive: 0.196%

**Q.** Which “activity change, negative = inhibition” value does the source give for `Cc1nc2ccc(S(=O)(=O)N(CC(=O)Nc3ccc(F)cc3F)Cc3ccccc3)cc2s1` here?
**A.** inactive: -10.4%

**Q.** With `CCOc1ccc(NC(=O)c2ccc3[nH]c(C)c(C)c3c2)cc1` as the compound, how does the “activity change, negative = inhibition” value read?
**A.** inactive: 4.79%

**Q.** Which “activity change, negative = inhibition” value does the source give for `Cc1ccc(S(=O)(=O)Nc2cccc(-c3cn4cccc(C)c4n3)c2)c(C)c1` here?
**A.** inactive: -13.1%

**Q.** With `O=C(Cn1c(=O)c2cccn2c2cccnc21)NCc1cccc(F)c1` as the compound, how does the “activity change, negative = inhibition” value read?
**A.** inactive: -3.79%

**Q.** With `O=C(Cn1c(SCc2ccccc2F)nc2ccncc21)Nc1ccccc1C(F)(F)F` as the compound, how does the “activity change, negative = inhibition” value read?
**A.** inactive: 1.66%

**Q.** Which “activity change, negative = inhibition” value does the source give for `CCCCN(C)C(=O)c1cn(C)c2ccc(S(=O)(=O)N3CCC(C)CC3)cc2c1=O` here?
**A.** inactive: -8.08%

**Q.** Which “activity change, negative = inhibition” value does the source give for `O=C(Cn1ccc2cc(S(=O)(=O)N3CCCCC3)ccc21)NCCc1ccccc1Cl` here?
**A.** inactive: -14.2%

**Q.** With `COc1ccccc1NC(=O)Cn1c(=O)n(Cc2ccccc2)c(=O)c2c1c1cc(C)ccc1n2C` as the compound, how does the “activity change, negative = inhibition” value read?
**A.** inactive: 0.258%

**Q.** With `Cc1ccsc1CN1CCc2nc(Nc3ccccc3)ncc2C1` as the compound, how does the “activity change, negative = inhibition” value read?
**A.** inactive: 2.15%

**Q.** Which “activity change, negative = inhibition” value does the source give for `CC(NC(=O)CSc1n[nH]c(-c2ccccc2Cl)n1)c1nc2ccccc2[nH]1` (stereo not drawn) here?
**A.** inactive: -11.7%

**Q.** For `CCNc1nc(NCc2ccc(F)cc2)c2cnn(C)c2n1`, which “activity change, negative = inhibition” value is on record?
**A.** inactive: 6.65%

**Q.** Which “activity change, negative = inhibition” value does the source give for `CC1=C(C(=O)Nc2cccc(Cl)c2C)C2(CCCCCC2)OC1=O` here?
**A.** inactive: -11.5%

**Q.** With `CC1CCN(S(=O)(=O)c2ccc3c(c2)CCN3)CC1` as the compound, how does the “activity change, negative = inhibition” value read?
**A.** inactive: 0%

**Q.** Which “activity change, negative = inhibition” value does the source give for `CCc1ccc(S(=O)(=O)c2nnn3c2nc(Nc2cc(OC)ccc2OC)c2sccc23)cc1` here?
**A.** inactive: 3.03%

**Q.** With `COc1ccccc1Nc1sc(C(=O)c2ccc(C)cc2C)c(N)c1S(=O)(=O)c1ccccc1` as the compound, how does the “activity change, negative = inhibition” value read?
**A.** inactive: -11%

**Q.** Which “activity change, negative = inhibition” value does the source give for `Cc1c(C(=O)Nc2nc(-c3ccc(F)cc3)ns2)oc2ccc(Cl)cc12` here?
**A.** inactive: -0.138%

**Q.** With `Cc1ccc(CCNC(=O)CS(=O)Cc2nc(-c3ccccc3Cl)oc2C)cc1` (stereo not drawn) as the compound, how does the “activity change, negative = inhibition” value read?
**A.** inactive: 0.968%

**Q.** Which “activity change, negative = inhibition” value does the source give for `O=C(Cc1ccccc1)Nc1sc2c(c1C(=O)Nc1ccc(Br)cc1)CCC2` here?
**A.** inactive: 9.61%

**Q.** For `Cc1ccc2oc(C(=O)Nc3cccc(Cl)c3)cc(=O)c2c1`, which “activity change, negative = inhibition” value is on record?
**A.** inactive: -0.358%

**Q.** For `COc1ccccc1C(=O)Nc1ccccc1OCc1cc(=O)n2ccccc2n1`, which “activity change, negative = inhibition” value is on record?
**A.** inactive: -2.94%

**Q.** Which “activity change, negative = inhibition” value does the source give for `COc1cccc(N2CC(NC(=O)c3ccc(S(=O)(=O)N4CCOCC4)cc3)CC2=O)c1` (stereo not drawn) here?
**A.** inactive: 0.215%

**Q.** With `O=C(NCCc1ccccc1)c1nc(-c2ccc(Cl)cc2)n2c1CCCCC2` as the compound, how does the “activity change, negative = inhibition” value read?
**A.** inactive: -4.21%

**Q.** For `COc1ccc(CNc2nc3c(-c4ccccc4)nnn3c3ccccc23)cc1`, which “activity change, negative = inhibition” value is on record?
**A.** inactive: 1.06%

**Q.** With `CC1CCCc2sc3nc(SCC(=O)c4ccc(Br)cc4)nc(N)c3c21` (stereo not drawn) as the compound, how does the “activity change, negative = inhibition” value read?
**A.** inactive: -2.49%

**Q.** Which “activity change, negative = inhibition” value does the source give for `Cc1cc(C)cc(OCC(=O)Nc2c(C)ccc3nsnc23)c1` here?
**A.** inactive: -1.87%

**Q.** For `COc1ccc(S(=O)(=O)c2cnc3ccc(Cl)cc3c2N2CCCCC2C)cc1` (stereo not drawn), which “activity change, negative = inhibition” value is on record?
**A.** inactive: -8%

**Q.** Which “activity change, negative = inhibition” value does the source give for `Cc1ccccc1NC(=O)CSc1nc2nccnc2c(=O)n1CCc1c[nH]c2ccccc12` here?
**A.** inactive: -3.39%

**Q.** With `CCOc1ccc(N(CC)S(=O)(=O)c2cc(Br)cc3c2N(C(C)=O)C(C)C3)cc1` (stereo not drawn) as the compound, how does the “activity change, negative = inhibition” value read?
**A.** inactive: 9.36%

**Q.** For `COc1ccc(NC(=O)CSc2nc(-c3ccco3)cc(C(F)(F)F)n2)cc1OC`, which “activity change, negative = inhibition” value is on record?
**A.** inactive: -17.2%

**Q.** For `Cc1cccc(N2CCN(C(=O)Cn3nc(C)n4cccc4c3=O)CC2C)c1` (stereo not drawn), which “activity change, negative = inhibition” value is on record?
**A.** inactive: -10.7%

**Q.** For `CN(Cc1ccccc1)S(=O)(=O)c1nnc(NC(=O)c2cccc(Cl)c2)s1`, which “activity change, negative = inhibition” value is on record?
**A.** inactive: 9.1%

**Q.** For `CCCCN(C)CCCNC(=O)Cn1ncc2c3ccccc3n(Cc3ccccc3)c2c1=O`, which “activity change, negative = inhibition” value is on record?
**A.** inactive: -1.56%

**Q.** With `Cc1cccc(NC(=O)CSc2nccn2Cc2ccc(F)cc2)c1C` as the compound, how does the “activity change, negative = inhibition” value read?
**A.** inactive: -4%

**Q.** For `CCOc1ccccc1CN1CCN(S(=O)(=O)c2ccccc2)CC1`, which “activity change, negative = inhibition” value is on record?
**A.** inactive: 2.82%

**Q.** For `CCOC(=O)c1c(-c2ccccc2)oc2ccc(NS(=O)(=O)c3cc(C)c(C)cc3C)cc12`, which “activity change, negative = inhibition” value is on record?
**A.** inactive: -0.828%

**Q.** Which “activity change, negative = inhibition” value does the source give for `Cc1ccc(C(=O)Nc2cc3c(cc2C)n(C)c(=O)c(=O)n3C)cc1` here?
**A.** inactive: 0.966%

**Q.** With `Cc1ccccc1NC(=O)c1ccc2c(c1)c(C)c(C)n2Cc1ccccc1` as the compound, how does the “activity change, negative = inhibition” value read?
**A.** inactive: -29.5%

**Q.** Which “activity change, negative = inhibition” value does the source give for `O=C(CN1N=C(c2ccc(Cl)cc2)CCC1=O)NCCc1ccc(Cl)cc1` here?
**A.** inactive: 0.0455%

**Q.** For `COc1ccc(S(=O)(=O)N2CCCN(CC(=O)Nc3ccc(NC(C)=O)cc3)CC2)cc1`, which “activity change, negative = inhibition” value is on record?
**A.** inactive: -0.834%
